Measurements as given in paper PMC4428065.
Like-named read-outs stand apart in the source and are kept apart here. No constants are given. Whether binding was seen depends on the method and setting. For part of these data: Binding seen in cells or lysates may run through a third protein. Some entries that bind do so weakly or less than the wild type. For part of these data: Sequences can lack the tags named with a protein. Each block holds one molecule with its values, some of them ahead of it.

Chains of the proteins cited; added tags and fusions are not shown.
UniProt P14713: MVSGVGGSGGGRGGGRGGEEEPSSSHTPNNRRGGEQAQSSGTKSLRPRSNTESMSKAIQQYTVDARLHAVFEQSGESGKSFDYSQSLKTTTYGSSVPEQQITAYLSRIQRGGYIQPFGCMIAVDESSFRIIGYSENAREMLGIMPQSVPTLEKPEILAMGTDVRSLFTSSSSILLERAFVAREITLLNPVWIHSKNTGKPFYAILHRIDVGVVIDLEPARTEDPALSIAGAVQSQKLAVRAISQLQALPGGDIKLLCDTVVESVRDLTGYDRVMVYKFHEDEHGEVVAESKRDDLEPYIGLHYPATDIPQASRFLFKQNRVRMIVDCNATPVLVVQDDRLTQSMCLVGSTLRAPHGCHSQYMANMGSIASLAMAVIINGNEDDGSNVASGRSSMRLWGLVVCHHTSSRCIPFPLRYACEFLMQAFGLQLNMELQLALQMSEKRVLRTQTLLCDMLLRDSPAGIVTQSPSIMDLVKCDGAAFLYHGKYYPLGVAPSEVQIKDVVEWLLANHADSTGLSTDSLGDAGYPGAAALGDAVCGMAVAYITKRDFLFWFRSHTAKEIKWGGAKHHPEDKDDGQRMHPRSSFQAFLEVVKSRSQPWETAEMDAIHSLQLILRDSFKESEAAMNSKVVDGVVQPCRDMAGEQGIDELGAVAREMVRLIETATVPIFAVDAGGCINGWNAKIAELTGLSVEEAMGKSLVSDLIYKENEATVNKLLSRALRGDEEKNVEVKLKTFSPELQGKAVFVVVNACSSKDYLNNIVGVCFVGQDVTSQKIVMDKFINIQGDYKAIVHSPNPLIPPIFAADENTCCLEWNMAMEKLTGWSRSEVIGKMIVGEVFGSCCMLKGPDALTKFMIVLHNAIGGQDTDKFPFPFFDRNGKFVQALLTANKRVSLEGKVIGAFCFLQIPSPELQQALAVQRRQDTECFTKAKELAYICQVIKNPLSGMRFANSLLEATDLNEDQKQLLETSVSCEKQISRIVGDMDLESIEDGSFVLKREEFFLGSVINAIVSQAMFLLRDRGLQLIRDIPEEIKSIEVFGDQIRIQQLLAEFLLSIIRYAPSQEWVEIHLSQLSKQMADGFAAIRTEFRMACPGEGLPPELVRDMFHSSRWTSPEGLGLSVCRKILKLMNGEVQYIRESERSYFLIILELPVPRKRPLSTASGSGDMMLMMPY
UniProt Q39057: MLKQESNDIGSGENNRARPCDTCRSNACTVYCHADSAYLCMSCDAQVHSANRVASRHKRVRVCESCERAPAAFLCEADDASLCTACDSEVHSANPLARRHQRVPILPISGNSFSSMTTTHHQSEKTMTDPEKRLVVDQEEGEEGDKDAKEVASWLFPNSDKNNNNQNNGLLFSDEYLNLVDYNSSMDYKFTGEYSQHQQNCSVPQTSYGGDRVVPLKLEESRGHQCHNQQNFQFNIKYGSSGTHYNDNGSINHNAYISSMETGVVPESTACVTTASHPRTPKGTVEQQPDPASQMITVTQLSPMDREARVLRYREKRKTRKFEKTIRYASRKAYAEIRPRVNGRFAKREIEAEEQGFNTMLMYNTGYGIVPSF
UniProt Q9C6M5: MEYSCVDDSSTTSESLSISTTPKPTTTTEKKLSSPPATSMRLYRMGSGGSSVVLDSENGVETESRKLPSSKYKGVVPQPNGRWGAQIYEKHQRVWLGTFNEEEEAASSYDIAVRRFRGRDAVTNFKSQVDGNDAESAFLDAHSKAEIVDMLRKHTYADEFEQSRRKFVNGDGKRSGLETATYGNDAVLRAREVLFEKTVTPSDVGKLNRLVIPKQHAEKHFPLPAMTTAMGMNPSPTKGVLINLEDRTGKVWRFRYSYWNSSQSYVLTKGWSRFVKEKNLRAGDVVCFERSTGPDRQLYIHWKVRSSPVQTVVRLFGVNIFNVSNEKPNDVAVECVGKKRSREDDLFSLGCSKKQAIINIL
UniProt P82280: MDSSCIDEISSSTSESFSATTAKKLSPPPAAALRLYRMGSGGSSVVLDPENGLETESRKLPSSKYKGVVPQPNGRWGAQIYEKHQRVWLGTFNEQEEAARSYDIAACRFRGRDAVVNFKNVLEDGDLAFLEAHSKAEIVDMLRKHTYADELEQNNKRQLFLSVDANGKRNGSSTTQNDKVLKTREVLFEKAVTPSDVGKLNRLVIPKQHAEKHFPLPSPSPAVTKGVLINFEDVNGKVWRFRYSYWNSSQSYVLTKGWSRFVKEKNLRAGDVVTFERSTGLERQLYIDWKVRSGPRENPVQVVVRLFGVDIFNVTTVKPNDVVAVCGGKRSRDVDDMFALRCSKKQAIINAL
UniProt Q9S7Q7: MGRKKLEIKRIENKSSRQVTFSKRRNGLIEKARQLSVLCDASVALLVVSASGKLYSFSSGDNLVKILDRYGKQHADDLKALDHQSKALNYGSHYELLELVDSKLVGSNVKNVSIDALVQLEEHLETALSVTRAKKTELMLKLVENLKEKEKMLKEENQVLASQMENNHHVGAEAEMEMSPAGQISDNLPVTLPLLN
UniProt Q9C9W9: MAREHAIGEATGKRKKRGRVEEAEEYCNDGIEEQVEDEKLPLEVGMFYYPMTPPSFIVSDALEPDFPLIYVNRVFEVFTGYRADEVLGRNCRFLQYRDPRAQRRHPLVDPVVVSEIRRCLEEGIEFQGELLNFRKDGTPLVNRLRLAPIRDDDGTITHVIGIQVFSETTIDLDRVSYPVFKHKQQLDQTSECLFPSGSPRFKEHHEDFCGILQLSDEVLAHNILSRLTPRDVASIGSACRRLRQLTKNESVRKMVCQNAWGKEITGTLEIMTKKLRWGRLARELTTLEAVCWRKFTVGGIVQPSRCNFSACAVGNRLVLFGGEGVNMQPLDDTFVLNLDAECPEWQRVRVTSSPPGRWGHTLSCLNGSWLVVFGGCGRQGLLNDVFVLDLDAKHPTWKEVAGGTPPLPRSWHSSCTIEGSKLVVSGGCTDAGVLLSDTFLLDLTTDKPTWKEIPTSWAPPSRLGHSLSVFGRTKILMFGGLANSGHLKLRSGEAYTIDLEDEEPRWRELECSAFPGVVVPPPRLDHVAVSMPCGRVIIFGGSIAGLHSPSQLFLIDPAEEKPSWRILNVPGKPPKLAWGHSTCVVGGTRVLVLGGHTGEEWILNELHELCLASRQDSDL

Legend:
[1] = molecular target: T1, DE-ETIOLATED1 (DET1), full-length, yeast two-hybrid bait (Arabidopsis thaliana) (UniProt P48732); experiment: two-hybrid; … GAL4 two-hybrid system 3 (pGBKT7 bait, pGADT7 prey) in S. cerevisiae AH109; growth on media lacking adenine, leucine, histidine and tryptophan; beta-galactosidase activity; full-length DET1 as bait in Figure 4b
T1 sequence: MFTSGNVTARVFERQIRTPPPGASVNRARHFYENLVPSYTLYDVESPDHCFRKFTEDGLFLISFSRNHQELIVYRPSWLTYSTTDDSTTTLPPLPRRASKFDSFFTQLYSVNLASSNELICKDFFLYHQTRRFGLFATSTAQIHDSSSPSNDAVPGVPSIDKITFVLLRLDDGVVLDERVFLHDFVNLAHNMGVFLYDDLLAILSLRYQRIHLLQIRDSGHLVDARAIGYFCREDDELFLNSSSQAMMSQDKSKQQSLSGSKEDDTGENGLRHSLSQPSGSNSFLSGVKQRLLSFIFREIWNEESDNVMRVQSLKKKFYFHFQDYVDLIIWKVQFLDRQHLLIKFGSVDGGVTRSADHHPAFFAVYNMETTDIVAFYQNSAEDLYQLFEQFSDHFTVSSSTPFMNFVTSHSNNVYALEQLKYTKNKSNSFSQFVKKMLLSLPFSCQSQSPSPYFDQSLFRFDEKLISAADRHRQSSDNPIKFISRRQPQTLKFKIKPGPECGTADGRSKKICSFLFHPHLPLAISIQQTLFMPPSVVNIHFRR

[2] = molecular target: T1, DE-ETIOLATED1 (DET1), full-length, yeast two-hybrid bait (Arabidopsis thaliana); experiment: as above; remark: listed apart in the source
[3] = molecular target: T2, DET1-nYFP (Arabidopsis thaliana) (UniProt P48732); experiment: split reporter; BiFC: nEYFP and cEYFP fusion plasmids mixed 1:1 and co-bombarded into onion epidermal layers, incubated on MS solid media with MG132 for 16-24 h at 22°C, confocal microscopy
T2 sequence: T1 sequence

[4] = molecular target: T3, nYFP-DET1 (Arabidopsis thaliana) (UniProt P48732); experiment: as above
T3 sequence: T1 sequence

[5] = molecular target: T4, TAP-DET1 (Arabidopsis thaliana) (UniProt P48732); experiment: co-IP; TAP-IP with IgG beads from total protein extract of transgenic Arabidopsis seedlings grown in SD and treated with MG132; GI-HA detected with anti-HA antibody
T4 sequence: T1 sequence

Molecule: PHYB, yeast two-hybrid fusion (from UniProt P14713 1-1172)
binding [1]: no binding

Molecule: CONSTANS (CO), yeast two-hybrid fusion (from UniProt Q39057 1-373)
binding [1]: no binding

Molecule: TEM1, yeast two-hybrid fusion (from UniProt Q9C6M5 1-361)
binding [1]: no binding

Molecule: SVP, yeast two-hybrid fusion (from UniProt Q9FVC1 1-240)
binding [1]: no binding

B1: GIGANTEA N-terminal region (aa 1-507), yeast two-hybrid prey (domain or fragment, UniProt Q9SQI2 1-507)
chain: MASSSSSERWIDGLQFSSLLWPPPRDPQQHKDQVVAYVEYFGQFTSEQFPDDIAELVRHQYPSTEKRLLDDVLAMFVLHHPEHGHAVILPIISCLIDGSLVYSKEAHPFASFISLVCPSSENDYSEQWALACGEILRILTHYNRPIYKTEQQNGDTERNCLSKATTSGSPTSEPKAGSPTQHERKPLRPLSPWISDILLAAPLGIRSDYFRWCSGVMGKYAAGELKPPTIASRGSGKHPQLMPSTPRWAVANGAGVILSVCDDEVARYETATLTAVAVPALLLPPPTTSLDEHLVAGLPALEPYARLFHRYYAIATPSATQRLLLGLLEAPPSWAPDALDAAVQLVELLRAAEDYASGVRLPRNWMHLHFLRAIGIAMSMRAGVAADAAAALLFRILSQPALLFPPLSQVEGVEIQHAPIGGYSSNYRKQIEVPAAEATIEATAQGIASMLCAHGPEVEWRICTIWEAAYGLIPLNSSAVDLPEIIVATPLQPPILSWNLYIPLLKV
binding [2]: binds

B2: PHYA, yeast two-hybrid fusion (protein, UniProt P14712 1-1122)
chain: MSGSRPTQSSEGSRRSRHSARIIAQTTVDAKLHADFEESGSSFDYSTSVRVTGPVVENQPPRSDKVTTTYLHHIQKGKLIQPFGCLLALDEKTFKVIAYSENASELLTMASHAVPSVGEHPVLGIGTDIRSLFTAPSASALQKALGFGDVSLLNPILVHCRTSAKPFYAIIHRVTGSIIIDFEPVKPYEVPMTAAGALQSYKLAAKAITRLQSLPSGSMERLCDTMVQEVFELTGYDRVMAYKFHEDDHGEVVSEVTKPGLEPYLGLHYPATDIPQAARFLFMKNKVRMIVDCNAKHARVLQDEKLSFDLTLCGSTLRAPHSCHLQYMANMDSIASLVMAVVVNEEDGEGDAPDATTQPQKRKRLWGLVVCHNTTPRFVPFPLRYACEFLAQVFAIHVNKEVELDNQMVEKNILRTQTLLCDMLMRDAPLGIVSQSPNIMDLVKCDGAALLYKDKIWKLGTTPSEFHLQEIASWLCEYHMDSTGLSTDSLHDAGFPRALSLGDSVCGMAAVRISSKDMIFWFRSHTAGEVRWGGAKHDPDDRDDARRMHPRSSFKAFLEVVKTRSLPWKDYEMDAIHSLQLILRNAFKDSETTDVNTKVIYSKLNDLKIDGIQELEAVTSEMVRLIETATVPILAVDSDGLVNGWNTKIAELTGLSVDEAIGKHFLTLVEDSSVEIVKRMLENALEGTEEQNVQFEIKTHLSRADAGPISLVVNACASRDLHENVVGVCFVAHDLTGQKTVMDKFTRIEGDYKAIIQNPNPLIPPIFGTDEFGWCTEWNPAMSKLTGLKREEVIDKMLLGEVFGTQKSCCRLKNQEAFVNLGIVLNNAVTSQDPEKVSFAFFTRGGKYVECLLCVSKKLDREGVVTGVFCFLQLASHELQQALHVQRLAERTAVKRLKALAYIKRQIRNPLSGIMFTRKMIEGTELGPEQRRILQTSALCQKQLSKILDDSDLESIIEGCLDLEMKEFTLNEVLTASTSQVMMKSNGKSVRITNETGEEVMSDTLYGDSIRLQQVLADFMLMAVNFTPSGGQLTVSASLRKDQLGRSVHLANLEIRLTHTGAGIPEFLLNQMFGTEEDVSEEGLSLMVSRKLVKLMNGDVQYLRQAGKSSFIITAELAAANK
binding [2]: no binding

B4: GI-cYFP (protein, UniProt Q9SQI2 1-1173)
chain: MASSSSSERWIDGLQFSSLLWPPPRDPQQHKDQVVAYVEYFGQFTSEQFPDDIAELVRHQYPSTEKRLLDDVLAMFVLHHPEHGHAVILPIISCLIDGSLVYSKEAHPFASFISLVCPSSENDYSEQWALACGEILRILTHYNRPIYKTEQQNGDTERNCLSKATTSGSPTSEPKAGSPTQHERKPLRPLSPWISDILLAAPLGIRSDYFRWCSGVMGKYAAGELKPPTIASRGSGKHPQLMPSTPRWAVANGAGVILSVCDDEVARYETATLTAVAVPALLLPPPTTSLDEHLVAGLPALEPYARLFHRYYAIATPSATQRLLLGLLEAPPSWAPDALDAAVQLVELLRAAEDYASGVRLPRNWMHLHFLRAIGIAMSMRAGVAADAAAALLFRILSQPALLFPPLSQVEGVEIQHAPIGGYSSNYRKQIEVPAAEATIEATAQGIASMLCAHGPEVEWRICTIWEAAYGLIPLNSSAVDLPEIIVATPLQPPILSWNLYIPLLKVLEYLPRGSPSEACLMKIFVATVETILSRTFPPESSRELTRKARSSFTTRSATKNLAMSELRAMVHALFLESCAGVELASRLLFVVLTVCVSHEAQSSGSKRPRSEYASTTENIEANQPVSNNQTANRKSRNVKGQGPVAAFDSYVLAAVCALACEVQLYPMISGGGNFSNSAVAGTITKPVKINGSSKEYGAGIDSAISHTRRILAILEALFSLKPSSVGTPWSYSSSEIVAAAMVAAHISELFRRSKALTHALSGLMRCKWDKEIHKRASSLYNLIDVHSKVVASIVDKAEPLEAYLKNTPVQKDSVTCLNWKQENTCASTTCFDTAVTSASRTEMNPRGNHKYARHSDEGSGRPSEKGIKDFLLDASDLANFLTADRLAGFYCGTQKLLRSVLAEKPELSFSVVSLLWHKLIAAPEIQPTAESTSAQQGWRQVVDALCNVVSATPAKAAAAVVLQAERELQPWIAKDDEEGQKMWKINQRIVKVLVELMRNHDRPESLVILASASDLLLRATDGMLVDGEACTLPQLELLEATARAIQPVLAWGPSGLAVVDGLSNLLKCRLPATIRCLSHPSAHVRALSTSVLRDIMNQSSIPIKVTPKLPTTEKNGMNSPSYRFFNAASIDWKADIQNCLNWEAHSLLSTTMPTQFLDTAARELGCTISLSQ
binding [4]: binds

Continued, values first:

binding [1]: no binding
Molecule: TEM2, yeast two-hybrid fusion (from UniProt P82280 1-352)

binding [1]: no binding
Molecule: FLOWERING LOCUS C (FLC), yeast two-hybrid fusion (from UniProt Q9S7Q7 1-196)

binding [1]: no binding
Molecule: FLAVIN-BINDING, KELCH REPEAT, F-BOX PROTEIN 1 (FKF1), yeast two-hybrid fusion (from UniProt Q9C9W9 1-619)

binding [3]: binds
B3: cYFP-MSI4 (protein, UniProt O22607 1-507)
chain: MESDEAAAVSPQATTPSGGTGASGPKKRGRKPKTKEDSQTPSSQQQSDVKMKESGKKTQQSPSVDEKYSQWKGLVPILYDWLANHNLVWPSLSCRWGPQLEQATYKNRQRLYLSEQTDGSVPNTLVIANCEVVKPRVAAAEHISQFNEEARSPFVKKYKTIIHPGEVNRIRELPQNSKIVATHTDSPDVLIWDVETQPNRHAVLGAANSRPDLILTGHQDNAEFALAMCPTEPFVLSGGKDKSVVLWSIQDHITTIGTDSKSSGSIIKQTGEGTDKNESPTVGPRGVYHGHEDTVEDVAFSPTSAQEFCSVGDDSCLILWDARTGTNPVTKVEKAHDADLHCVDWNPHDDNLILTGSADNTVRLFDRRKLTANGVGSPIYKFEGHKAAVLCVQWSPDKSSVFGSSAEDGLLNIWDYDRVSKKSDRAAKSPAGLFFQHAGHRDKVVDFHWNASDPWTIVSVSDDCETTGGGGTLQIWRMSDLIYRPEEEVVAELEKFKSHVMTCASKP

binding [5]: binds
B5: GI-HA (protein, UniProt Q9SQI2 1-1173)
chain: B4 chain
